In publication PMC4484057, “Daple is a novel non-receptor GEF required for trimeric G protein activation in Wnt signaling” (eLife, 2015):

Target: T1, His-Daple-CT (aa 1650–2028) (human, UniProt Q9P219-1 1650-2028)
T1 construct: Cloned from myc-Daple pcDNA 3.1 into pET28b between NdeI/EcoRI; also called His-Daple-CT WT; Daple-CT-WT; source: E. coli BL21 (DE3), purified (HisPur Cobalt Resin)
T1 sequence (looked up): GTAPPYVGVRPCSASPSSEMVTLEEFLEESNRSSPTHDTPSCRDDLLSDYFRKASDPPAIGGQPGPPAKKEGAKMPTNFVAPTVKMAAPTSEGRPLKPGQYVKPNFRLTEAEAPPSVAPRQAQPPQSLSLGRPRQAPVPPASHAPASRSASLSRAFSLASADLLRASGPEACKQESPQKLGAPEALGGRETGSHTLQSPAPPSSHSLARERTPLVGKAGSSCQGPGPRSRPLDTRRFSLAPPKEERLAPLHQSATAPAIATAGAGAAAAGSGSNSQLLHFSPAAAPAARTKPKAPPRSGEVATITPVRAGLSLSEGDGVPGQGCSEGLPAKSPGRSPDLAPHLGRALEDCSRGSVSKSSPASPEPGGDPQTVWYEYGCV
Experiment: pull-down; GST-Gα protein (5 µg) preloaded with GDP (inactive) on glutathione beads; purified His-Daple-CT (3 µg); 4 hr at 4°C; 50 mM Tris-HCl pH 7.4, 100 mM NaCl, 0.4% NP-40, 10 mM MgCl2, 5 mM EDTA, 30 µM GDP, 2 mM DTT; immunoblot
Settings: both partners purified

B1: GST-Gαi1 (natural protein)
chain: not shown
notes: Gαi1, rat, in pGEX-4T-1; also called GST-fused Gαi1; source: E. coli BL21 (DE3), purified (glutathione-Sepharose 4B)
  binding result: binds
